From publication PMC4336329 (PLoS ONE, 2015)
About 2,200 (0.71%) of roughly 310,000 compounds showed an effect of 50% or more. Effects have a minus sign here. This is one part of the list.

What follows are compounds tested against human ether-à-go-go-related gene (hERG) potassium channel (human, UniProt Q12809) (assay: primary screen, population patch clamp on CHO cells stably expressing hERG).
human ether-à-go-go-related gene (hERG) potassium channel, sequence (Q12809 whole entry, looked up): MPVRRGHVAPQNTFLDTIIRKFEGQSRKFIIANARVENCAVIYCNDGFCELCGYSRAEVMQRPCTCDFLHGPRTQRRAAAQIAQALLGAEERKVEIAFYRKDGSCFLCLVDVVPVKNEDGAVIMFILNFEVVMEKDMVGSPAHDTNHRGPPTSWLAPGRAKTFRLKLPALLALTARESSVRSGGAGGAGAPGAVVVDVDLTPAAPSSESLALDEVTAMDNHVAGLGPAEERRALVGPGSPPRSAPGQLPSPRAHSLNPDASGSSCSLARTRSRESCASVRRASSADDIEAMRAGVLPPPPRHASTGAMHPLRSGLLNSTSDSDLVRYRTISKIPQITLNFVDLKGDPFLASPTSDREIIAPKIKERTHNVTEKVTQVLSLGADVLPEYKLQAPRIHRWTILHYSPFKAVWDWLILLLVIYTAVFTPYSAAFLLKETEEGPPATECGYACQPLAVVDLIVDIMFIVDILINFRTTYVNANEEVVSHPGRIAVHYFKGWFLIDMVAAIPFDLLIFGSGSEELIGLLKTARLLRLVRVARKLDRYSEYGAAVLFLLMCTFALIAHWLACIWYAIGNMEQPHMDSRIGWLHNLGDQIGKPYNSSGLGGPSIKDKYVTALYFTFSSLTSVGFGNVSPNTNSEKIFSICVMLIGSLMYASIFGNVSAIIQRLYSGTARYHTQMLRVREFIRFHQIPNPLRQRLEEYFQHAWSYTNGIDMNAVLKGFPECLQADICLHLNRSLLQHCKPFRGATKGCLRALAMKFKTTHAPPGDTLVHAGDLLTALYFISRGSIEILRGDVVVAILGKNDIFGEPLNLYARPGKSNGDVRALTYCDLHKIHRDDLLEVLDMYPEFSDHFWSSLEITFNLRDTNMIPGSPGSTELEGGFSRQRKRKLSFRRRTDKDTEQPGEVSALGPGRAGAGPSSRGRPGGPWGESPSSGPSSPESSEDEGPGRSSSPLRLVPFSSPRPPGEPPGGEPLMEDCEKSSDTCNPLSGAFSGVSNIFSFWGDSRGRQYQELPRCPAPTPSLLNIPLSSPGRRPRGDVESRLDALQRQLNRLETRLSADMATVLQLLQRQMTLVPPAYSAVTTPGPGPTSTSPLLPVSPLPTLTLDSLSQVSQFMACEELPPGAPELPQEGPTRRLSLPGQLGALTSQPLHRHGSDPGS

SMILES | hERG current change (%, negative = inhibition) at 1uM [%]
N#CC(C#N)=NNc1ccc(-n2ccc(C(F)(F)F)n2)cc1 | -24.2
COCCn1c(=O)[nH]c2cc(C(=O)N3CCN(c4cc(C)ccc4C)CC3)ccc2c1=O | 7.26
Cc1cc(C)c(CN2CCCC(CNC(=O)c3ccc(F)cc3)C2)c(-n2cccn2)c1 (centres unmarked) | -85.4
NC(=S)N/N=C1\CCOc2ccc(F)cc21 | 4.33
CCCCCCCN=C(C)c1ccccc1O | 13.6
CCc1cccc(C)c1NC(=O)CCCn1c(=O)c2cccn2c2cccnc21 | 4.77
CC(=O)Nc1cc2c(cc1C(=O)c1ccccc1)OCCO2 | -0.64
COc1cccc(C(=O)Nc2ccc(N3CCN(S(C)(=O)=O)CC3)cc2)c1 | 17
Fc1ccc(C2=Nn3c(nnc3-c3ccco3)SC2)cc1 | 12
CC(C)(C)c1cc(C(=O)NCCN2CCCC2)cc(C(C)(C)C)c1 | 8.86
O=[N+]([O-])c1ccccc1S(=O)(=O)c1ccccc1 | 11.6
COc1ccc2oc(C(=O)NCCN3CCOCC3)c(C)c2c1OC | 9.86
O=C(NNc1ccccc1[N+](=O)[O-])Nc1ccccc1 | 10.2
O=C(CN1C(=O)C2CC=CCC2C1=O)Nc1nc2ccccc2[nH]1 (centres unmarked) | 7.86
CC(=O)c1ccc(OC(=O)c2nc(-c3ccccc3)oc2C)cc1 | 17.3
COc1ccc(Cc2nnc(SCC(=O)Nc3ccccc3C#N)o2)cc1 | -8.61
O=C(NCCc1nc(-c2ccccc2Cl)no1)C1CCCCC1 | 6.51
Cc1cccc(C(=O)NNC(=O)c2ccccc2)c1 | 4.98
COc1cc(NC(=O)Cc2ccc([N+](=O)[O-])cc2)c(C(=O)O)cc1OC | 2
CCN(CC)S(=O)(=O)c1cccc(N2CC(O)=C(c3ccccc3)C2=N)c1 | 12.3
O=C(Nc1ccc(Cl)c(S(=O)(=O)N2CCCCC2)c1)c1ccco1 | 5.63
CCN(CC)C(=O)COc1coc(CN2CCN(c3cccc(Cl)c3)CC2)cc1=O | 0.464

SMILES | hERG current change (%, negative = inhibition) at 1uM [%]
Cc1cc(/C=C2/NC(=O)NC2=O)c(C)n1C | 12.1
COc1ccccc1N1CCN(C(=O)c2ccc(Cl)c(S(=O)(=O)N3CCOCC3)c2)CC1 | 1.45
COC(C(=O)Nc1ccc(Br)cc1F)c1ccccc1 (centres unmarked) | 19.3
COC(=O)c1ccccc1NC(=O)CN1CCN(C(=O)c2ccco2)CC1 | -7.42
CC1CCN(c2nnc(NC(=O)Cn3c(=O)oc4ccccc43)s2)CC1 | 15.1
CCOC(=O)C1CCN(C(=O)CN(c2ccc(Oc3ccccc3)cc2)S(C)(=O)=O)CC1 | 4.25
CCOC(=O)CCCNC(=O)CN1C(=O)NC(CCc2ccccc2)C1=O (centres unmarked) | 3.35
CCCOc1ccc(CCC(=O)N/N=C/c2ccncc2)cc1 | 6.16
Cc1cccc(NC(=O)NNC(=O)COc2ccc3ccccc3c2)c1 | 17.8
Cc1cc(NS(=O)(=O)c2ccc(NC(=O)C(CC(C)C)N3C(=O)c4ccccc4C3=O)cc2)nc(C)n1 (centres unmarked) | 16.6
O=c1[nH]c(C2CCN(S(=O)(=O)/C=C/c3ccccc3)CC2)nc2c1nnn2Cc1ccc(F)cc1 | 12.5
CCOCCn1c(C)c(C(=O)OCC)c2cc(O)c3ccccc3c21 | 11.1
CCOc1ccc(NC(=O)c2ccc(N3CC4CC(C3)c3cccc(=O)n3C4)c(NC(=O)c3cccnc3)c2)cc1 (centres unmarked) | 11.8
CCN(CC)C(=O)C(Cc1ccccc1)N1C(=O)c2ccccc2C1=O (centres unmarked) | 7.79
OCC1CCCN1C(=S)Nc1ccccc1 (centres unmarked) | 14
O=C(Nc1nnc(SCC(=O)N2CCOCC2)s1)C1CC(=O)N(c2ccc(F)cc2)C1 (centres unmarked) | 7.58
COc1cc(OC)cc(N(C(=O)c2snc(C(N)=O)c2N)C(C(=O)NCC2CCCO2)c2ccc(C)o2)c1 (centres unmarked) | 7.37
Cc1ccc(NC(=O)CNCc2cccs2)cc1Br.Cl | 13.9
COc1cc(-c2cc(-c3ccc(N)cc3)[nH]c(=O)c2C#N)cc(OC)c1OC | 14.6
COCCSc1ccccc1C(=O)Nc1ccc2c(c1)OCO2 | 8.78
CC(C)[C@H](NC(=O)[C@@H]1CSC2c3ccccc3C(=O)N21)C(=O)NCc1ccncc1 (some centres unmarked) | 13.4
C=CCSc1ccsc1C(=O)O | 5.39
